Test results: PubChem BioAssay AID1745853 (National Center for Advancing Translational Sciences (NCATS), 2022)
Some of the results follow. Further columns of the screen follow, without active or inactive calls.

What was measured:
Assay in all cases: Primary Screen for Target Class Profiling of Small Molecule Inhibitors of Methyltransferases
[1] = target: Glycine N-methyltransferase (Homo sapiens) (UniProt Q14749); conditions: purified enzyme, MTase-Glo SAH luminescence; measured here: GNMT inhibition; at 40 µM; stronger effect = lower value
Summary of the method: (§1)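 Each enzyme was assayed with SAM and its substrate. SAH formation detected by MTase-Glo luminescence; single-point 40 uM screen[…].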

[2] = target: Guanidinoacetate N-methyltransferase (Homo sapiens) (UniProt Q14353); conditions: purified enzyme, MTase-Glo SAH luminescence; measured here: GAMT inhibition; at 40 µM; stronger effect = lower value
Summary of the method: as §1

[3] = target: Histamine N-methyltransferase (Homo sapiens) (UniProt P50135); conditions: purified enzyme, MTase-Glo SAH luminescence; measured here: HNMT inhibition; at 40 µM; stronger effect = lower value
Summary of the method: as §1

[4] = target: Nicotinamide N-methyltransferase (Homo sapiens) (UniProt P40261); conditions: purified enzyme, MTase-Glo SAH luminescence; measured here: NNMT inhibition; at 40 µM; stronger effect = lower value
Summary of the method: as §1

[5] = target: Phenylethanolamine N-methyltransferase (Homo sapiens) (UniProt P11086); conditions: purified enzyme, MTase-Glo SAH luminescence; measured here: PNMT inhibition; at 40 µM; stronger effect = lower value
Summary of the method: as §1
% is scaled to controls: 0 for no effect and ±100 for the full control effect.

Row | SMILES | activity change, negative = inhibition [1] [%] | activity change, negative = inhibition [2] [%] | activity change, negative = inhibition [3] [%] | activity change, negative = inhibition [4] [%] | activity change, negative = inhibition [5] [%]
1 | CCCn1c(=O)c2ccc(Cl)cc2n2c(=O)n(CC(=O)NCc3ccc(Cl)cc3)nc12 | -5.18 | 0 | 7.66 | -5.68 | -4.95
2 | COc1ccc(Cl)cc1NC(=O)N1CCn2cccc2C1C(C)C (stereo not drawn) | 3.38 | 0 | -0.556 | -2.97 | -1.42
3 | CN(Cc1ccco1)C(=O)c1cc2n(n1)CC(C)(C(=O)NC1CCCCC1)N(C)C2=O (stereo not drawn) | 4.96 | 0 | 10.1 | 9.5 | 5.88
4 | CC[C@@]1(C(=O)O)C[C@H](C(=O)N(C)CCO)[C@H](c2ccc(F)cc2)N1C | -14.9 | -10.3 | -3.78 | -15.4 | 4.17
5 | O=C(c1ccc[nH]c1=O)N1CC(F)(F)C[C@H]1c1nc(C2CC2)no1 | -2.7 | -1.77 | -0.716 | -3.49 | 2.88
6 | Cc1nn2c(c1-c1ccccc1Oc1ccccc1)N(C(=O)c1cccc(C#N)c1)CCC2 | -6.13 | 0.807 | 0.246 | -15.9 | -1.42
7 | Cn1cnc2c(F)c(Nc3ccc(Br)cc3F)c(C(=O)NOCCO)cc21 | -4.1 | -2.98 | 6.64 | -16.8 | 5.16
8 | CCCCOC(=O)NC(=O)C1c2ccccc2Oc2ccccc21 | 2.95 | -38.6 | 4.44 | -31.5 | -6.93
9 | O=C1NC2(CCN(Cc3ccsc3)C2)COc2ccccc21 (stereo not drawn) | -6.37 | -1.58 | -10.9 | -5.82 | -21.1
10 | Cc1ccc(C)c(NC(=O)Cn2c(=O)c3ccc(Cl)cc3n3nncc23)c1 | -6.04 | 0 | -2.44 | -3.7 | -7.6
11 | COc1c(C(C)C)c(O)c(O)c2c1C(OC)[C@H]1OC(=O)[C@@]23CCCC(C)(C)[C@H]13 (stereo partly drawn) | 2.95 | 0.427 | 9.56 | -12.9 | 6.17
12 | CC[C@H](CC#N)OC(=O)N[C@@H](C)c1cccc(NC(=O)Nc2ccc(-c3cnco3)c(OC)c2)c1 | -2.71 | 12.3 | -27.8 | -20.5 | -0.84
13 | COCc1nncn1C1CCN(S(=O)(=O)c2ccc(Br)cc2)CC1 | -1.65 | -23.8 | -3.93 | -11.6 | -10.3
14 | C=C(C)[C@H]1CC[C@]2(C(=O)O)CC[C@]3(C)C(CCC4[C@@]5(C)CCC(=O)C(C)(C)C5CC[C@]43C)C12 (stereo partly drawn) | -7.61 | -4.45 | 3.07 | -22.2 | -11.6
15 | O=C1[C@H]2CN(Cc3c[nH]c4ccccc34)C[C@H]2C(=O)N1CCc1ccccc1 | -6.37 | -5.6 | -4.05 | -6.83 | 3.19
16 | CC1CC(C)CN(S(=O)(=O)c2ccc3c(c2)oc(=O)n3CC(=O)N2C(C)CCCC2C)C1 (stereo not drawn) | -5.76 | 5.3 | -4.24 | 3.65 | -6.42
17 | CC(C)OCCCN1C(=O)c2cnn(-c3ccccc3)c2-n2cccc2C1C(=O)NC1CCCCCC1 (stereo not drawn) | -6.76 | 1.86 | -0.209 | 3.25 | -2.98
18 | CCn1c(CN(C)C)nnc1C1CCN(Cc2ccc(-n3ccnc3)cc2)CC1 | -0.521 | -1.73 | -4.69 | 3.84 | 1.01
19 | Nc1ccc(-c2cnc(N)c(-c3ccc(Cl)cc3)c2)cn1 | – | 4.49 | – | -37.4 | -5.03
20 | C=C1CC[C@H]2[C@@](C)(CCC(O)[C@@]2(C)CO)[C@@H]1C/C=C(/C(=O)O)C(O)CO (stereo partly drawn) | -0.038 | -2.94 | 8.29 | -12.8 | -2.92
21 | COc1ccc(-n2[nH]c(=O)c3[nH]c4cc(Cl)ccc4c(=O)c3c2=O)c(C)c1 | -5.91 | -16 | -3.24 | -26.6 | -24.5
22 | O=C(C[C@@H]1CCNC[C@@H]1Cc1cc(CC2CCCCC2)on1)NC1CCCCC1 | -1.78 | -7.59 | -3.63 | -12.3 | -7.37
23 | COCc1ncc(C)n1CC1CCN(C(=O)C2(c3ccc(OC)cc3)CC2)CC1 | -0.75 | 1.67 | 1.64 | -0.729 | 0.905
24 | O=C(CCn1ccc2cc(S(=O)(=O)N3CCCCC3)ccc21)NCc1cccc(F)c1 | 7.63 | 6.22 | 4.61 | 0.633 | 0.23
25 | COc1ccc(C(=O)N2CC(CO)C3(CCNCC3)C2)cc1 (stereo not drawn) | -5.5 | -5.84 | -2.66 | -11 | -10.5
26 | C[C@@H]1O[C@@H](O[C@H]2[C@@H]3C=CO[C@@H](O[C@@H]4O[C@H](CO)[C@@H](O)[C@H](O)[C@H]4O)[C@@H]3[C@@]3(CO)O[C@@H]23)[C@H](O)[C@H](OC(=O)/C=C/c2ccc(O)cc2)[C@H]1OC(=O)/C=C/c1ccc(O)cc1 | 1.78 | 1.46 | 7.54 | -10.8 | -0.597
27 | Cc1cc2c(cc3n2CC(C)(C(=O)NC2CCCCCC2)N(Cc2cccc(Cl)c2)C3=O)o1 (stereo not drawn) | 2.28 | 0 | 8.03 | 6.01 | 3.39
28 | CSc1ccc(CNC(=O)CCn2ccc3cc(S(=O)(=O)N4CCC(C)CC4)ccc32)cc1 | 3.11 | 0 | 7.48 | 2.79 | 3.42
29 | COC(=O)c1ncn2c1C(=O)N(Cc1ccccc1C)C(C)(C(=O)NC1CCCC1)C2 (stereo not drawn) | -3.02 | 5.21 | 1.21 | 5.05 | 0.641
